Assay results published in the supplement of paper PMC3334620.
In all, about 33,000 sequences were measured (“E-score (-0.5 to 0.5)”: median about -0.021, highest 2% from about 0.32 on). Some of the results follow.

The sequences below were run against T1, Zap1 (UniProt P47043) (assay: PBM E-score (8-mer binding enrichment) (E-score (-0.5 to 0.5)); higher = stronger / more preferred TF binding; most listed sequences are background and not binding sites). Conditions: protein concentration: 200 nM; construct: GST-full length.
T1 sequence: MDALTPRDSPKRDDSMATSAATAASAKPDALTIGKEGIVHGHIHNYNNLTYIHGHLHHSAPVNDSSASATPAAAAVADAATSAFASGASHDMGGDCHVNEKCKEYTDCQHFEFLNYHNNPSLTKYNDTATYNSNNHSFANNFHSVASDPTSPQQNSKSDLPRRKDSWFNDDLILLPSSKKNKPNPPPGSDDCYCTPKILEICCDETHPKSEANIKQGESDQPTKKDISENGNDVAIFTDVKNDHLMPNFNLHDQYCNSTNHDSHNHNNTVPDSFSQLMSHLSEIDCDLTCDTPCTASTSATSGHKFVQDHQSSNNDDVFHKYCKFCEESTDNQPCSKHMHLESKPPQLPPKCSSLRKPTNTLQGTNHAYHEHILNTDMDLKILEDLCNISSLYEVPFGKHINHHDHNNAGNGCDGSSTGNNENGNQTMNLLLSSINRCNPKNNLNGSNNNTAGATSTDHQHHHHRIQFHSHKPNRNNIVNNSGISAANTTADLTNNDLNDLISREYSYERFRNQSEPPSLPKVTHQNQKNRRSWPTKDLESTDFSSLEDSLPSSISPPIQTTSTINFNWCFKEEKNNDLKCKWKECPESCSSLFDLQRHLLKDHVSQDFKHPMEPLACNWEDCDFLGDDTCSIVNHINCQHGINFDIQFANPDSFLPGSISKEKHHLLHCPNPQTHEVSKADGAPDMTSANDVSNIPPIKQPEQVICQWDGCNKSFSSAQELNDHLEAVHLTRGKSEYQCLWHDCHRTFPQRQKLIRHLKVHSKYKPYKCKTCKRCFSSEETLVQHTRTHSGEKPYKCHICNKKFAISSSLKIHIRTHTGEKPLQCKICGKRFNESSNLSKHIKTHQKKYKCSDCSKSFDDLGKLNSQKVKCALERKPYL
In short: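 Detection of bound protein used fluorescent anti-GST, with scans normalised by masliner. The proteins were GST-tagged yeast transcription factors applied at about 100-200 nM to universal all-10-mer Agilent arrays made double-stranded by primer extension. Each ungapped eight-base word, pooled with its reverse complement, was scored with an E-score from the Universal PBM Analysis Suite.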

Sequence | PBM E-score
GTTGAACA | -0.15
AGCCCTCA | -0.192
GCCCGTAC | -0.156
CCACAAAC | 0.147
GGTCTGCA | 0.126
ACGCTCAT | -0.114
CGCTACGC | -0.318
AAAGGGAC | 0.0521
ATTTCGGG | -0.0207
CTTTATAA | 0.199
ACTCGACA | -0.111
ACTGGTAT | -0.0556
ACCGGGTC | 0.293
CGGCGTAG | -0.263
ACATTTAC | -0.0287
ACAATTGC | -0.103
CTACGATC | -0.0779
ATTCAGAC | 0.0646
CCTAGTGA | 0.129
CGTTTTTA | 0.174
GGGCATAC | -0.282
CTAAAGGC | 0.0752
CTCTGTCA | -0.167
CTTACTTC | 0.00964
CGAAAGTA | 0.146

Sequence | PBM E-score
CTGTCCAA | -0.0805
GGTCTGAC | -0.00295
GGGCGCCA | -0.137
CCACCCTA | 0.327
CCATTTCG | -0.121
GACTCGGA | -0.237
AACATAAC | 0.3
CCGATTAG | -0.0444
ATCCTGGG | 0.0369
CCATTTAG | 0.125
CACCTGGA | 0.0676
TCTTGTAA | 0.105
ACGGAAGG | -0.0816
CTCGGTTA | 0.187
CTATCAAA | 0.0152
CCCCGAGC | -0.129
CTCCGGGC | -0.135
TCAAGCCA | -0.0541
AGATGCTG | -0.202
GCGTGCCC | -0.216
GAAAGGTA | 0.363
CCTACGAG | -0.0116
CCTAGAGA | -0.0434
AAAAACCC | 0.196
CTAGTGTA | 0.0499

Sequence | PBM E-score
GCAGCTGC | -0.246
TCGGCGCA | -0.261
GATGCTCC | -0.301
CCCACCCG | 0.324
AACTTCGT | -0.109
ATGTACTC | -0.138
ACGGCATC | -0.247
ACCCAATG | -0.0144
GTTTTTGA | 0.0887
GTTGTGCA | -0.0759
CCGGTGGC | -0.225
AAGACGGT | 0.0278
AGCCTCAA | -0.142
GCCTTCTA | -0.0749
ACCTTATC | 0.203
ACACCTGA | 0.115
ACAGGCAG | -0.262
GTTAGCGA | 0.0456
AAGGAATC | -0.00239
ATTACCCG | 0.239
ATGCTTCC | -0.171
ACACGGCA | -0.114
CTCCGCTC | -0.101
TCAGCTCA | -0.00847
CACTGACA | -0.0013

Sequence | PBM E-score
CTGTTCAC | -0.104
CATCAATG | -0.0471
CTCCGGTA | 0.0407
AAAGTCTG | -0.0325
CCTTACCC | 0.208
CTTCTATA | 0.0339
CATACGAG | -0.132
AATACCCT | 0.379
GCGCAGGA | -0.351
AAAGCTTG | -0.0232
GGGTTCTA | 0.198
AAAAGCCC | -0.167
AGTGAGGA | -0.16
CCCGCACA | -0.171
AAGGTTGT | 0.384
TTAACTAA | 0.246
AACCTGGG | 0.0157
GCAAAGTA | -0.0277
TCCCCACA | -0.196
CCGGTATA | 0.0363
ACGGATCA | -0.0433
AAATTCTA | -0.0171
AGTCAATA | -0.0386
GCTTTGCC | -0.379
AGCGGCGA | -0.156

Sequence | PBM E-score
GCTTCCAA | -0.0531
ACGTATAG | -0.182
AACTTACC | 0.0142
GACTAAAA | 0.168
CTAACAAC | 0.226
GTTTCCAA | -0.00834
GGGTCAAA | 0.263
AGTCCCTA | -0.034
ATAGGATA | 0.0277
ATGCGCAG | -0.27
ACGGCGGG | 0.0714
CGGGGCGC | -0.115
GGAGCAAA | -0.275
CAAGCCTC | -0.222
TTCAGAAA | 0.118
ATGTAATG | 0.202
AACAGGCC | -0.24
CCAAACCC | 0.162
ACCTCAAT | 0.237
AAGTGATA | -0.136
AAGTTTCG | 0.0696
TAATTGGA | 0.164
AGTACTTG | -0.0331
CGATCAGA | -0.196
CGAATATA | 0.0846

Sequence | PBM E-score
CACGGAGA | -0.188
AACATGTT | 0.00555
CTCCAGGA | -0.213
GCCGATAA | -0.0954
CGGGCACA | -0.161
CGACCGCC | -0.18
TAAAATCA | 0.0965
GCAGGGGC | -0.206
AGAAACCG | 0.0611
GTCTGATA | -0.117
ATTGCCGG | -0.111
CAGCGCAC | -0.278
AGGCTCGG | -0.383
TATTGGAA | 0.0272
ACTTTACA | 0.111
CGCTCTAC | -0.0893
CGGATAAA | 0.147
CCCGACTA | -0.0609
AAACGCAT | -0.0553
TATGATAA | 0.233
TCGGGAAA | -0.0382
GTCTAATA | 0.0115
ATAATCAA | 0.0789
CCATCCGA | 0.0101
ATTTGACA | 0.0851

Sequence | PBM E-score
CGGCGGAG | -0.226
GCAATTTA | 0.134
AGAGTGCC | -0.117
CTAAGGGC | -0.0125
GCACTGGA | -0.136
GATCGCTA | 0.0298
AAAGTAGA | -0.0244
CCTGCTCG | -0.0742
CTCGACGA | -0.13
GCCAATCC | -0.142
CTCAGGGA | 0.016
ATGCGGCA | -0.0342
ACCGCGGC | 0.248
ACTACCGC | 0.172
CAACCTGC | 0.0864
AAGGCTCG | -0.248
CCCTTCGG | 0.205
AGACTCCC | -0.195
TGCCTCAA | -0.144
CACTCCAC | -0.0374
AGACTCCT | -0.112
ACGCTTCG | -0.164
